The supplement of paper PMC7826260
This is one part of the list. One pool of 16,384 single-stranded DNAs met each Rep nickase domain in vitro (3 µM enzyme, 1 h, 37 °C); shown is the middle of each 90-letter strand. Uncut reads are compared with the no-enzyme pool on a log2 scale; strong cutting gives strongly negative numbers. There is no active / inactive call. Because reads are shares of a total, they shift together, so uncut sequences can rise above 0 when many others are cut.

Assays:
Experiment in all cases: uncleaved DNA left, log2 of reads against the no-enzyme library (log2 ratio); higher = less cleavage (more negative = more Rep cleavage of the k-mer); sequences stand for … in CTCGTCCG…ACCGGAGA
[1] = tested on: T1, Rep nickase domain of Muscovy duck circovirus
T1 sequence (residues 1-111, tag not shown): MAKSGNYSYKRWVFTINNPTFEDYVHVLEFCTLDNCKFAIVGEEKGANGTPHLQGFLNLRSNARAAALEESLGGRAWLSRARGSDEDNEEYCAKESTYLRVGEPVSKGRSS
Experimental: (§1)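 A pool of 90-nt single-stranded DNAs with seven random bases just before the constant AC of the nick site (name = the seven bases) was cut by 3 µM recombinant His6-SUMO-tagged Rep nickase domain (300 nM DNA, 50 mM HEPES pH 8.0, 50 mM NaCl, 1 mM MnCl2, 1 h, 37 °C, three replicates). Uncut DNA was amplified and sequenced.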

[2] = tested on: T2, Rep nickase domain of banana bunchy top virus
T2 sequence (residues 1-94, tag not shown): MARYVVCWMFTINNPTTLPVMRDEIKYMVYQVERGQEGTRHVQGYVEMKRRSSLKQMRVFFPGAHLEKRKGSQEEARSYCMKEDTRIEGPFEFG
Experimental: as §1

[3] = tested on: T3, Rep nickase domain of cabbage leaf curl virus
T3 sequence (residues 1-116, tag not shown): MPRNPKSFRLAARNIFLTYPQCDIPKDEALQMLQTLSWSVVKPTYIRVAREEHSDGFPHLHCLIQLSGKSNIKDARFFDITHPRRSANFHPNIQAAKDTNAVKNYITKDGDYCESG
Experimental: as §1

[4] = tested on: T4, Rep nickase domain of chickpea chlorotic dwarf virus
T4 sequence (residues 1-124, tag not shown): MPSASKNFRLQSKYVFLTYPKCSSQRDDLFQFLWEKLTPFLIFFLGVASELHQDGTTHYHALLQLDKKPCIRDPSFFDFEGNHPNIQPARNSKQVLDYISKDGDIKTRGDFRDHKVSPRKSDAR
Experimental: as §1

[5] = tested on: T5, Rep nickase domain of faba bean necrotic yellows virus
T5 sequence (residues 1-98, tag not shown): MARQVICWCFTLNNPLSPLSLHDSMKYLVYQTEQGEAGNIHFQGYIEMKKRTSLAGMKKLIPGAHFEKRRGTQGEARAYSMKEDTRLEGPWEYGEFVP
Experimental: as §1

[6] = tested on: T6, Rep nickase domain of maize striate mosaic virus
T6 sequence (residues 1-117, tag not shown): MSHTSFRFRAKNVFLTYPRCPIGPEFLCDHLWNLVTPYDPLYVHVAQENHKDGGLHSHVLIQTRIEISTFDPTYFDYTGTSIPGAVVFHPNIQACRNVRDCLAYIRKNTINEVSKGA
Experimental: as §1

[7] = tested on: T7, Rep nickase domain of porcine circovirus 2
T7 sequence (residues 2-116, tag not shown): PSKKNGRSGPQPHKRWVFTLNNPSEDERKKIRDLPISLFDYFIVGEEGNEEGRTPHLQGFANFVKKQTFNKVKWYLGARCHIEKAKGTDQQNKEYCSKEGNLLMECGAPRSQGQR
Experimental: as §1

[8] = tested on: T8, Rep nickase domain of tomato golden mosaic virus
T8 sequence (residues 1-124, tag not shown): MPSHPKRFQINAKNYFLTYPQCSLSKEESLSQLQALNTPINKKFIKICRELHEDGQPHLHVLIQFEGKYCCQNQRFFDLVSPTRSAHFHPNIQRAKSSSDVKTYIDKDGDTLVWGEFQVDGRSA
Experimental: as §1

[9] = tested on: T9, Rep nickase domain of tomato yellow leaf curl virus
T9 sequence (residues 1-136, tag not shown): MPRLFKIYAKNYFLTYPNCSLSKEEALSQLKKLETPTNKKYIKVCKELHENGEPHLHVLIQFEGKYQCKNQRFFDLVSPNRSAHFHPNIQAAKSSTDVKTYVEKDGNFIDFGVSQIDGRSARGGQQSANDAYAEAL
Experimental: as §1

[10] = tested on: T10, Rep nickase domain of wheat dwarf virus
T10 sequence (residues 1-137, tag not shown): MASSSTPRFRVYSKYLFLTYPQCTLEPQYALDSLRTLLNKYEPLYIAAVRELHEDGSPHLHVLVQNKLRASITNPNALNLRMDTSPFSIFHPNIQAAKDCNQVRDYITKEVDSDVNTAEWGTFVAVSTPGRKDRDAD
Experimental: as §1

Sequence	uncleaved DNA left (log2) [1]	uncleaved DNA left (log2) [2]	uncleaved DNA left (log2) [3]	uncleaved DNA left (log2) [4]	uncleaved DNA left (log2) [5]	uncleaved DNA left (log2) [6]	uncleaved DNA left (log2) [7]	uncleaved DNA left (log2) [8]	uncleaved DNA left (log2) [9]	uncleaved DNA left (log2) [10]
GCTCACA	0.0776	0.0603	0.165	-0.254	0.098	0.39	0.0233	0.174	0.0437	0.139
CTCAGTA	0.102	-0.0532	-0.16	-1.24	-0.0305	-0.565	-0.082	-0.0362	0.0183	0.0975
ACCTTAT	-0.0265	0.0757	-0.0896	-0.824	0.0339	-0.664	-1	0.0664	-0.05	0.0271
GCACGGC	-0.0374	-0.0951	0.0435	0.468	0.0574	0.0129	-0.0115	0.00596	-0.12	-0.154
TGGTCGT	0.0855	0.0507	0.112	0.0666	0.114	-0.289	0.00951	0.0125	0.12	0.0399
CTGTACC	-0.0675	-0.0817	0.0386	-0.0557	-0.0975	0.108	-0.242	-0.11	0.0218	-0.0585
AGTATGA	-0.0513	0.0631	0.0803	0.437	0.0725	-0.0218	-0.0904	-0.0696	-0.0059	-0.018
CGAAGAC	-0.13	-0.0412	0.0314	0.377	0.00254	0.319	0.0264	-0.0586	-0.105	-0.0167
TCCAGGC	0.161	0.0407	0.285	0.452	0.062	-0.169	0.109	-0.00262	0.0652	-0.0565
CAAGCAC	0.0169	0.0158	-0.304	-0.0634	0.0483	-0.661	0.124	-0.0842	-0.0629	-0.0396
ACGACGA	-0.185	-0.175	-0.293	-0.0566	-0.12	-0.609	-0.0618	-0.0989	-0.139	-0.0532
AGGACCT	0.0532	0.0456	0.395	1.12	-0.0964	1.57	0.0842	-0.0996	-0.0741	0.0926
AATGGCC	-0.0385	-0.149	-0.0694	0.557	-0.047	0.711	0.0171	-0.0356	-0.116	-0.0799
GCTGGCA	-0.0238	0.0147	0.0346	0.518	-0.117	0.482	0.0437	0.0539	-0.0921	0.0245
CAGAGAG	-0.0123	0.0468	-0.539	-0.436	-0.00928	-0.945	0.187	0.0369	-0.0485	-0.162
GCTCTTT	-0.00373	-0.186	0.0566	-0.961	-0.0836	0.0917	-0.122	-0.0619	0.00335	-0.191
AGGTGGT	-0.0276	-0.0112	0.202	1.27	-0.113	1.7	-0.656	0.0601	-0.122	-0.0156
CAGGGGG	0.114	0.128	-0.205	-0.0857	0.0976	-0.423	0.259	0.199	0.065	0.0125
AAAGCCT	0.0185	0.0588	-0.593	-2.36	0.0116	-0.201	-0.227	-0.125	-0.0427	-0.187
GTCGCGT	-0.0868	-0.0271	-0.354	-0.585	-0.015	-0.452	0.0318	-0.0523	-0.0339	-0.11

Sequence	uncleaved DNA left (log2) [1]	uncleaved DNA left (log2) [2]	uncleaved DNA left (log2) [3]	uncleaved DNA left (log2) [4]	uncleaved DNA left (log2) [5]	uncleaved DNA left (log2) [6]	uncleaved DNA left (log2) [7]	uncleaved DNA left (log2) [8]	uncleaved DNA left (log2) [9]	uncleaved DNA left (log2) [10]
CACAGAA	-0.0208	-0.0143	-0.117	-0.496	-0.0816	-0.791	-0.025	-0.00494	-0.155	-0.0638
CTCGTTC	-0.0317	0.0271	-0.00938	-0.649	-0.0434	-0.628	-0.0277	-0.115	0.0775	-0.0543
CCGTATC	-0.109	-0.187	0.0218	-0.214	-0.0651	-0.511	-0.268	-0.0796	-0.0718	-0.235
AAGACCG	-0.0329	-0.00801	-0.38	-0.597	0.0498	-0.885	0.136	0.0565	-0.0259	0.00223
CAGATCT	0.0383	-1.58	-0.694	-2.84	-0.778	-0.501	-3.35	-0.00878	0.0257	-0.0601
CATATAT	0.019	-0.556	0.0499	-1.48	0.212	-0.736	-0.62	0.169	0.0674	0.00364
CTCAAGA	-0.0707	-0.112	-0.0828	-0.248	-0.138	-0.952	0.0905	0.0424	-0.00493	0.00179
GAATAGA	0.00824	0.0097	-0.00193	0.209	0.00323	-0.252	-0.116	-0.0231	-0.0265	-0.0609
TACTAAC	0.132	0.143	-0.272	-1.72	-0.000597	-0.543	-0.546	0.0254	0.0416	0.0575
GTAAACA	0.0129	0.0349	0.257	0.445	-0.216	1.48	0.0323	0.0847	0.012	-0.0231
TCGACTT	0.137	0.0343	0.129	0.663	-0.0201	1.72	-0.0532	-0.0361	0.183	0.21
CAGAAAT	-0.00643	-0.183	0.177	-0.0356	-0.117	0.35	-2.77	0.113	-0.0222	0.222
AGCAGAT	0.0693	0.177	0.18	0.89	0.119	1.46	0.124	0.136	-0.0305	0.102
GGTCTGA	0.046	0.117	0.602	1.28	-0.0153	1.87	0.0907	0.115	0.104	0.164
TACCTGT	-0.0651	-0.157	-0.176	-1	-0.174	0.203	-0.562	-0.187	0.0587	-0.0813
CACCTAT	0.0442	-0.156	-0.166	-2.1	0.152	-0.658	-0.623	0.0536	-0.0197	-0.0396
ACCCGCG	-0.0167	0.0759	0.283	1.7	0.0793	1.72	0.187	0.0378	0.0375	0.00781
TGTCATG	-0.12	-0.0695	-0.341	-0.511	-0.0683	-0.881	-0.0643	-0.158	-0.146	0.0374
CGCCACG	-0.000262	0.0852	-0.627	-0.3	0.0802	-0.698	0.149	0.0232	0.0437	-0.157
TTGCAGA	-0.03	-0.151	-0.68	-0.628	-0.0248	-1.17	0.0415	-0.0909	0.0955	-0.0774

Sequence	uncleaved DNA left (log2) [1]	uncleaved DNA left (log2) [2]	uncleaved DNA left (log2) [3]	uncleaved DNA left (log2) [4]	uncleaved DNA left (log2) [5]	uncleaved DNA left (log2) [6]	uncleaved DNA left (log2) [7]	uncleaved DNA left (log2) [8]	uncleaved DNA left (log2) [9]	uncleaved DNA left (log2) [10]
CAGGCTT	-0.0172	-0.309	0.113	-0.529	-0.123	0.959	-2.67	0.0179	-0.142	-0.068
AATACCT	-0.315	-0.746	-0.953	-2.87	-0.0116	-0.416	-2.95	-0.11	-0.17	-0.171
ACAATAA	-0.0173	-0.0111	-0.202	-0.259	-0.0467	-0.787	0.182	0.061	-0.116	0.0273
AATAACT	-0.224	-0.476	-1.15	-3.12	-0.0387	-1.27	-3.41	-0.0603	-0.0636	-0.222
ATGTGGG	0.149	0.00421	-0.609	-0.601	0.0629	-0.837	0.176	0.0723	0.133	-0.121
GTTTTTC	-0.0451	-0.0313	0.215	0.801	0.0162	1.57	-0.0149	0.0259	0.0116	-0.00644
CTCCGAT	-0.00465	-0.125	0.166	0.426	-0.0141	0.625	0.143	0.000539	-0.105	-0.0283
GGCTTTA	-0.0215	-0.00987	0.346	0.75	-0.0529	1.61	-0.012	-0.0963	0.0904	0.0254
GCCATGT	-0.0157	-0.0059	-0.121	0.0691	-0.123	-0.576	0.0599	-0.126	0.0786	0.0144
ATGAAGA	0.0401	0.0151	-0.339	-0.442	0.0704	-1.12	0.0763	0.0189	-0.0263	-0.0773
GCTTTGG	0.189	0.0596	-0.157	-0.0936	0.167	-0.807	0.234	0.0714	0.189	0.0245
AAGTGAC	0.0727	-0.02	0.195	0.677	-0.104	0.68	0.0469	0.0226	0.00549	0.0747
CGGAAAA	-0.16	-0.0725	0.113	0.403	-0.147	-0.113	-0.0715	-0.0624	-0.0105	0.0263
ATTCGTA	-0.306	-0.142	-0.361	-1.01	0.00153	-1.18	-0.528	-0.076	0.0114	-0.128
CCCGTGT	-0.188	0.00265	-0.132	-0.575	-0.21	-0.853	-0.17	-0.117	-0.097	-0.183
ACTCTGA	-0.0837	-0.0174	-0.1	-0.0785	0.0321	-0.429	0.0522	0.114	0.0396	0.00717
TTTGTCC	-0.14	-0.161	0.011	-0.611	-0.0582	-0.717	-0.223	-0.17	-0.051	-0.0755
GCATTCC	0.0671	0.055	0.625	1.35	0.0437	1.47	0.174	-0.0326	0.0584	0.19
